# According to PubChem BioAssay AID488969 (Vanderbilt High Throughput Screening Facility, 2010):
# The full ranking holds about 110,000 compounds; the median of “z-score” is about -0.1, and the highest 2% start at about 2. The list shows a part of the results.
# Target: Metabotropic glutamate receptor 8 (Rattus norvegicus) (UniProt P70579)
# Experiment: rat mGluR8 modulators via GIRK flux, primary screen, cell-based, thallium flux, HTS (AID 488969)
# Conditions: HEK293 rat mGluR8, GIRK (G protein-gated inwardly rectifying potassium channel) thallium flux, FluoZin2; at 10 µM; stronger effect = higher value; submaximal glutamate (EC20) added with thallium
# UniProt P70579, sequence (P70579 whole entry, looked up): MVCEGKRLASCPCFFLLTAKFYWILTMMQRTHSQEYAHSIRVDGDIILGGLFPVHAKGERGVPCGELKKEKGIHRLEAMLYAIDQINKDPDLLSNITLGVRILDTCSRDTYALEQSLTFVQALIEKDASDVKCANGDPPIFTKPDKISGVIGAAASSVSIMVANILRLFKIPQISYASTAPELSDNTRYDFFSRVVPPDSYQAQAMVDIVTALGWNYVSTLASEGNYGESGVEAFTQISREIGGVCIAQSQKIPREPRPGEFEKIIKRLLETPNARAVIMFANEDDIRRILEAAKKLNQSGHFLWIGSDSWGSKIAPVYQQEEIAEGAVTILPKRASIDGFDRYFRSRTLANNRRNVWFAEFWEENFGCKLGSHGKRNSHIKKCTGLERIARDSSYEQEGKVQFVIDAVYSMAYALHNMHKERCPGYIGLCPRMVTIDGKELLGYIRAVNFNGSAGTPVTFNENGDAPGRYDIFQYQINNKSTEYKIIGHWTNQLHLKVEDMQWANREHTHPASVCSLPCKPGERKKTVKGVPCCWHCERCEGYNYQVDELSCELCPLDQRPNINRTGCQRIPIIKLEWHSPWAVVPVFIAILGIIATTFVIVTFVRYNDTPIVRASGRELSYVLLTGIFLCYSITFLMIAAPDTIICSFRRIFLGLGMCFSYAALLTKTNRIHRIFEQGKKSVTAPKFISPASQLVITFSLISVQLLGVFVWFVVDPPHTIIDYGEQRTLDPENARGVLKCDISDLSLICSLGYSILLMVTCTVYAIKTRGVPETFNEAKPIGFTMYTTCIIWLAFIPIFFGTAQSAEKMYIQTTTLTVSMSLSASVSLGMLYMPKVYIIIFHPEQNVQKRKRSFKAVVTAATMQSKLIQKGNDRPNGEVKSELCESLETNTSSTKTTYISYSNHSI
row,Structure (SMILES),z-score
1,CCCC1CCc2c(c3ccccc3[nH]c2=O)O1 (stereo unspecified),0.709
2,CC(C)C(NC(=O)c1ccco1)C(=O)NCC(c1ccco1)N1CCCCC1 (stereo unspecified),-0.238
3,O=C(Nc1cc(Cl)c(O)c(Cl)c1)C1CCCO1 (stereo unspecified),0.322
4,Nc1sc(-c2ccccc2)cc1C(=O)O,1.07
5,C(=N\n1cnnc1)/C1CCCCC1,-0.0189
6,O=C(Cn1cc2c(n1)CCCC2)NCCc1ccccc1,0.294
7,Cc1ccc(Cn2ccc(NC(=O)c3cc(-c4ccc5c(c4)OCO5)on3)n2)cc1,-0.762
8,CC1=C(C(=O)OC2CCCCC2)C(c2ccc(C)o2)C2=C(CC(C)(C)CC2=O)N1 (stereo unspecified),0.464
9,COc1ccc(N(CC(=O)N2CCCCCC2)S(=O)(=O)c2c(C)[nH]c(=O)[nH]c2=O)cc1,-0.21
10,CCN(CC)CCCNC(=O)c1cc(Sc2nnc(C)s2)nc2ccccc12,-0.71
11,O=C(CCN1C(=O)c2ccncc2C1=O)Nc1ccc(F)cc1,0.269
12,CCCN1CCN(C(=O)C2CCN(S(=O)(=O)c3ccc4c(c3)oc(=O)n4C)CC2)CC1,0.466
13,O=[N+]([O-])c1ccccc1S(=O)(=O)Oc1ccc(/C=N/n2cnnc2)cc1,-0.274
14,CCC(C)NC(=O)c1ccccc1C(=O)NC(C)CC (stereo unspecified),0.631
15,O=C(C1=C(O)C(=O)N(Cc2ccco2)C1c1cccnc1)c1cc2ccccc2o1 (stereo unspecified),-0.567
16,O=C(Nc1ccc(S(=O)(=O)N2CCCC2)cc1Cl)C1=COCCO1,-0.178
17,COc1cc(C(=O)Nc2ccccn2)cc(OC)c1OC,0.165
18,C=CCOC(=O)COc1ccc2c(C)c(CC)c(=O)oc2c1,-1.65
19,O=C(NC1CCCCC1)NC1CC2CCC(C1)N2C(=O)NCc1ccccc1 (stereo unspecified),-1.66
20,CC(=O)Nc1ccc(/C=N/OCC(=O)Nc2ccc(C)cc2)cc1,0.00813
21,CCCCN=CC1=C(O)C(C(=O)OC)C(C)(C)CC1=O (stereo unspecified),-0.348
22,COc1ccc(Br)cc1CNC(=O)C1CCCN(c2nc3ccccc3o2)C1 (stereo unspecified),-0.0171
23,Cc1c(C(=O)NCc2ccccc2)c(-c2ccccc2)nn1-c1ccccc1,-0.287

row,Structure (SMILES),z-score
1,COc1cccc(C(=O)Nc2ccc(NC(C)=O)cc2)c1,-0.121
2,Cc1cc[n+](-c2[nH]c(=O)sc2/C=N/NC(=O)c2ccccc2[O-])cc1C,-0.403
3,COc1cccc(/C=N/NC(=O)C(=O)N2CCCC2)c1O,-0.494
4,CC(Sc1nnc2c(n1)C1CCC2(C)C1(C)C)C(=O)Nc1ccccc1 (stereo unspecified),-0.186
5,CC(=O)c1sc(NC(=O)c2cccc3ccccc23)nc1C,0.284
6,CC(=O)Nc1ccc(Oc2sc(C(=O)c3ccccc3)c(N)c2C#N)cc1,-0.122
7,COC(=O)c1cn(CCOc2ccc(C)cc2)c2ccccc12,-0.0474
8,O=C(Nc1ccc(N2CCN(C(=O)c3ccco3)CC2)cc1)C(c1ccccc1)c1ccccc1,-0.317
9,O=C(NCc1ccco1)c1noc2c1CCCCC2,0.248
10,COCCNc1nc2c(c(=O)n(Cc3ccc(OC)cc3)c(=O)n2C)n1C,-0.299
11,O=C(COc1ccc(Cl)cc1)NC1CCSC1=O (stereo unspecified),-0.441
12,CC(=O)Nc1ccc2c(c1)nc(CCN1CCOCC1)n2C,-0.145
13,COc1ccc(/C=N/NC(=O)c2ccc(C)cc2)cc1CN1CCN(c2ccc(F)cc2)CC1,-0.0403
14,CCOC(=O)c1c(C)[nH]c(C(=O)C(C)OC(=O)c2cccc(OCc3c(C)noc3C)c2)c1C (stereo unspecified),-0.76
15,CCOC(=O)c1nn(-c2ccccc2)c(=O)cc1SC(C)C,-0.0576
16,O=S(=O)(c1ccc(Br)s1)N1CCC(Cc2ccccc2)CC1,-0.136
17,FC(F)(F)c1nnc2ccc(NCn3nnc4ccccc43)nn12,-0.786
18,CC(=O)c1cccc(NS(=O)(=O)N(C)C)c1,-0.0274
19,O=C(c1ccc(Cl)cc1)c1cn[nH]c1-c1ccccc1O,-0.376
20,Cc1ccccc1CS(=O)(=O)Cc1ccc(C(=O)NCc2ccccn2)o1,0.493
21,CC(Sc1nc(N2CCCCC2)c2c(c1C#N)CCCC2)C(=O)O (stereo unspecified),-2.24
22,Cc1cc(C)nc(NC(=NCc2ccc3c(c2)OCO3)NC(=O)Nc2ccccc2)n1,0.0743
23,CCN(CCO)C(=O)CC(c1ccccc1)c1cc(Br)ccc1O (stereo unspecified),-0.323

row,Structure (SMILES),z-score
1,C=CCOCCN1C(=O)C2C(c3ccccc3)C=CC(c3ccccc3)C2C1=O (stereo unspecified),0.0984
2,C=CCSC1=C(C#N)C(c2ccccc2Cl)C(C(=O)c2cccs2)C(O)(C(F)(F)F)N1 (stereo unspecified),-0.278
3,CCCOC(=O)c1ccc(NC(=O)C2C3CCC(C3)C2C(=O)O)cc1 (stereo unspecified),0.0507
4,Cc1ccc(-n2cnnn2)c2cccnc12,-0.0905
5,Nc1ncnc2c1C1(CCCCC1)Cc1ccccc1-2,-0.678
6,CCOCCn1c(C(C)O)nc2ccccc21 (stereo unspecified),-0.208
7,O=C(C1CCCN(S(=O)(=O)c2cccc3cccnc23)C1)N1CCN(c2ccc(F)cc2)CC1 (stereo unspecified),-0.522
8,Cc1c(Nc2cc(N3CCCCCC3)c3nonc3c2[N+](=O)[O-])c(=O)n(-c2ccccc2)n1C,-0.277
9,CCCCC[n+]1ccn(-c2nc3ccccc3nc2[N-]S(=O)(=O)c2ccc(C)cc2)c1,-0.249
10,CC(NS(=O)(=O)c1ccc(Br)cc1)C(N)=O (stereo unspecified),0.444
11,O=C(O)c1cc2c(o1)CCC/C2=N\O,-0.346
12,Cc1ccc2nc(-c3ccc(N4C(=O)CC(N5CCC(C(N)=O)CC5)C4=O)cc3)sc2c1 (stereo unspecified),-0.388
13,O=C(Nc1cccc(Cl)c1)Nc1ccc(Br)cc1F,-0.0559
14,O=C(Nc1cccc2ccccc12)c1nn(C23CC4CC(CC(C4)C2)C3)cc1[N+](=O)[O-],-0.0877
15,CC1CCC(C(C)C)C(OC(=O)CSc2nc(N)cc(=O)[nH]2)C1 (stereo unspecified),-0.124
16,CCc1cccc(Oc2nn[nH]n2)c1,-0.415
17,COc1cccc(NC(=O)Nc2nnc(-c3ccccc3SCc3ccccc3)s2)c1,-0.00429
18,NC(Cc1ccc2nsnc2c1)C(=O)O (stereo unspecified),0.179
19,O=C(/C=C/c1ccc(Cl)cc1Cl)NCCN1CCOCC1,-0.554
20,COC(=O)C1CCN(C(=O)COC(=O)CC(NC(C)=O)c2ccccc2)CC1 (stereo unspecified),-0.208
21,CCc1ccc(NC(=O)C(=O)N/N=C(\C)CC(=O)Nc2ccccn2)cc1,0.701
22,O=C(NCc1nc2ccccc2[nH]1)c1ccc(S(=O)(=O)N2CCOCC2)cc1,-1.27
23,CCOC(=O)C(Nc1ccc2ccccc2c1)C(=O)OCC,-0.724

row,Structure (SMILES),z-score
1,COc1cccc(-n2c(Cc3cc(=O)[nH]c(=O)[nH]3)nnc2SCC(=O)N2CCCCCC2)c1,-0.039
2,COc1ccc(CCNC(=O)Cc2nn(C)c(=O)c3ccccc23)cc1OC,-0.658
3,O=C(O)c1ccccc1S(=O)CCO (stereo unspecified),-0.409
4,CN1CCN(c2ccccc2NC(=O)c2ccc(-c3ccccc3)cc2)CC1,-0.0195
5,O=C1OC2(c3ccccc3)C3CCCC2C13,-0.695
6,CCOc1cccc(C(=O)NC2CCCCC2)c1,-0.294
7,COc1ccc(-n2c(COc3ccc(C)cc3)nnc2SCC(N)=O)cc1,-1.14
8,COc1cccc(N2C(=O)C3ON(c4ccccc4)C(c4cccs4)C3C2=O)c1 (stereo unspecified),-0.134
9,CS(=O)(=O)Nc1ccccc1C(=O)Nc1cc(Cl)cc(Cl)c1,-0.153
10,COc1ccc(C(=O)n2nc(C)cc2C)cc1Br,-0.222
11,O=C(NC1CCCC1)C(c1ccncc1)N(CC1CCCO1)C(=O)Cn1nnc(-c2cccs2)n1 (stereo unspecified),0.084
12,CC(C)N(C(=O)COc1ccc(Br)cc1Cl)C(C)C,-0.925
13,O=C(CSc1nc2ccccc2s1)N1CCN(C(=O)c2ccco2)CC1,0.167
14,CN(C)CCn1c(C(=O)Nc2ccccc2)cc2ccccc21,-0.549
15,COc1cccc(N2CC(C(=O)Nc3nnc(SCc4ccccn4)s3)CC2=O)c1 (stereo unspecified),-0.6
16,OC(CNCC(c1ccco1)N1CCCCC1)c1ccccc1 (stereo unspecified),0.549
17,COc1ccc(-n2nc([N+](=O)[O-])c(=NCc3ccc4c(c3)OCO4)n2O)cc1,-0.12
18,O=c1cc(CSc2ccc(Cl)cc2)nc(N2CCOCC2)[nH]1,-0.725
19,Cc1[nH]nc2c1C1(CCC(c3ccccc3)CC1)C(C#N)=C(N)O2 (stereo unspecified),-0.0577
20,O=C(c1cccs1)c1no[n+]([O-])c1C(=O)c1cccs1,-0.851
21,Cc1occc1-c1nnc(SCC(=O)c2ccc(Cl)cc2)n1CC1CCCO1 (stereo unspecified),-0.0382
22,Cc1ccc(C)c(N(CC(=O)NC2CCCC2)C(=O)c2cc3cc4cc(C)ccc4nc3s2)c1,0.332
23,CCN(CC)c1ncnc2c1sc1nc(N3CCOCC3)c3c(c12)CCC3,-0.163

row,Structure (SMILES),z-score
1,CCOC(=O)c1[nH]c(C)c(C(=O)O)c1C,-0.0615
2,CCOC(=O)c1ccc(NC(=S)N2CCN(Cc3ccccc3)CC2)cc1,-0.2
3,COc1cc(NCCCCCCCN)c2ncccc2c1,2.78
4,Cc1ccc(O)c(N=NC2=C(O)CC(C)(C)CC2=O)c1,0.0252
5,O=C(O)C1CC(c2ccc(F)cc2)=NO1 (stereo unspecified),-0.205
6,CCCCc1cc(=O)oc2cc(OCc3cc(OC)c(OC)c(OC)c3)c(Cl)cc12,-0.0451
7,CC(=O)c1c(N)c(C#N)c(C)n1-c1ccc(Br)cc1,-0.725
8,CCN1C(=O)CC(N2CCN(CC(=O)NC(C)C)CC2)C1=O (stereo unspecified),-0.0646
9,C=CCn1c(CCNC(=O)c2ccccc2F)nnc1SCC(=O)Nc1nc2ccccc2s1,-0.292
10,CC(=O)NN1C(=O)c2ccc(Oc3cccc([N+](=O)[O-])c3)cc2C1=O,0.204
11,COCCOC(=O)/C(=C/c1ccc(OC(=O)c2ccccc2)cc1)C(C)=O,0.763
12,O=C(CCSCCc1ccccn1)Nc1cc(F)ccc1F,0.83
13,COc1cccc2cc(C(=O)N3CCN(C/C=C/c4ccccc4)CC3)c(=O)oc12,-0.766
14,COc1cc([N+](=O)[O-])ccc1NC(=O)CCCOc1cc(C)ccc1C,-0.277
15,Cc1cc2cc(CCNC(=O)C(C)C)c(=O)[nH]c2cc1C,-0.313
16,Cc1nn(-c2ccccc2)c(=S)c2ccccc12,0.00587
17,CCCOC(=O)/C(=C\c1ccc([N+](=O)[O-])o1)NC(=O)c1ccccc1,-0.939
18,CCCCOc1ccc(S(=O)(=O)Nc2cc(OC)ccc2OC)cc1,-1.31
19,Cc1ccc(C)c(N2CCN(C(=O)C3CCCCN3S(=O)(=O)c3ccc(F)cc3)CC2)c1 (stereo unspecified),-0.219
